# The other results are listed elsewhere or left out.
# Legend:
# [1] = system: HSkMC (human skeletal muscle cells); assay: cytotoxicity call (relative viability < 0.9); conditions: 10 µM
# [2] = system: HepG2; assay: cytotoxicity call (relative viability < 0.9); conditions: 10 µM
# [3] = system: S. aureus RN4220; assay: growth inhibition call (relative growth <= 0.2); conditions: 50 µM
SMILES,cytotoxicity call [1],cytotoxicity call [2],growth inhibition call [3]
C[C@@H]1CN([C@H](C)CO)C(=O)c2cc(NC(=O)Nc3cccc4ccccc34)ccc2O[C@@H](C)CCCCO[C@@H]1CN(C)S(=O)(=O)c1ccccc1,inactive,inactive,inactive
CO[C@@H]1CN(C)C(=O)c2ccc(NS(=O)(=O)c3cn(C)cn3)cc2OC[C@H](C)N(CC2CC2)C[C@@H]1C,inactive,inactive,inactive
Cc1[nH]c(=O)c(C(=O)O)c2c1CCC2,inactive,inactive,inactive
C[C@H]1CN([C@@H](C)CO)C(=O)c2cc(C#Cc3ccccc3F)cnc2O[C@@H]1CN(C)S(=O)(=O)c1ccccc1F,inactive,inactive,inactive
O=C(Nc1ccc(S(=O)(=O)OCC(F)(F)C(F)(F)C(F)(F)C(F)F)cc1)NC1(C(F)(F)F)Oc2ccccc2O1,inactive,inactive,active
O=C(NCC(F)(F)F)[C@@H]1c2ccccc2C(=O)N(CC23CC4CC(CC(C4)C2)C3)[C@H]1c1ccc(CO)cc1,inactive,inactive,inactive
C[C@@H]1CN([C@H](C)CO)C(=O)Cc2cc(NC(=O)CCC(F)(F)F)ccc2O[C@@H]1CN(C)Cc1ccc(Oc2ccccc2)cc1,inactive,active,inactive
COCC(=O)Nc1ccc2c(c1)C(=O)N(C)[C@H]1CC[C@H](CC(=O)NCc3ccc(OC)cc3)O[C@@H]1CO2,inactive,inactive,inactive
CNC(=O)c1ccc2c(c1)nnn2C,inactive,inactive,inactive
C[C@@H]1CN([C@H](C)CO)S(=O)(=O)c2ccc(Br)cc2O[C@@H]1CN(C)C(=O)c1cnccn1,inactive,inactive,inactive
